Measured values as given in PubChem BioAssay AID588855 (National Center for Advancing Translational Sciences (NCATS), 2011).
Among all 410,000 compounds or so, about 5,000 (1.2%) were called active. Inconclusive means that the source gave no clear call. Such entries were picked first, then a sample of the others. Calls come from the whole dose curve; as a rule, active = well fitted inhibition curve with a large enough effect; inconclusive = small, poorly fitted or top-dose-only effect; inactive = no such curve, though single readings can be large or run the other way. Potencies beside an inconclusive call are fits to weak or partial responses and may not hold up.

Experiment: qHTS for Inhibitors of TGF-b; note: nearly all actives have a fitted effect of over 65% in size
Conditions: HepG2 CAGA-GFP TGF-b/SMAD3 reporter, GFP fluorescence, 18 h, TGF-beta stimulated, 500 pg/mL final; series mostly up to 46.1 µM
Method in brief: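 Cell-based qHTS in HEPG2 carrying a CAGA-GFP Smad reporter; compounds added before 500 pg/mL final TGF-beta, 18 h incubation at 37 degrees C, GFP fluorescence quantified per cell by imaging cytometry.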
Potency is the fitted concentration of half-maximal effect; tags give direction and shape of the fitted curve.

Structure (SMILES) | Potency
CCO[C@H]1OC(C(=O)N2CCCCCCC2)=C[C@@H](C2CCCCC2)[C@@H]1CCCO | inconclusive: 11.2 µM [inhibitor, partial curve, poor fit]
COc1cc(CNc2ccccc2SC)ccc1O | inconclusive: 22.4 µM [inhibitor, single point]
CCOC(=O)C1=CN(Cc2ccco2)S(=O)(=O)N(C)C1c1ccc2ccccc2c1 (configuration not stated) | inactive
Cn1cc(S(=O)(=O)N2CCc3ccccc32)cc1C(=O)Nc1ccc(C(F)(F)F)cc1 | inconclusive: 0.158 µM [inhibitor, full curve, poor fit]
O=C(C[n+]1cccc(Br)c1)c1ccc(Br)cc1 | inconclusive: 35.5 µM [inhibitor, single point]
Cc1ccccc1OCC(=O)Nc1nnc(SCc2cc(=O)n3cccc(C)c3n2)s1 | inactive
COc1cccc(CNC(=O)c2cc3cc(C)ccc3n2C)c1 | inactive
O=C(COC(=O)c1ccc(O)cc1O)c1ccc(Cl)cc1 | inconclusive: 35.5 µM [inhibitor, single point]
COc1cccc(CN2CCCN(Cc3ccc(F)cc3)S2(=O)=O)c1 | inconclusive: 28.2 µM [inhibitor, single point]
COc1nc(N/N=C/c2ccc(-c3ccccc3[N+](=O)[O-])o2)nc(N2CCOCC2)n1 | inactive
CCOC(=O)C(=O)c1c(-c2ccc(C)cc2)nc2ccccn12 | inactive
Cc1ccc(NS(=O)(=O)c2ccc(C3CCCCC3)cc2)cc1 | active: 12.6 µM
O=C(NC(=S)Nc1ccc(N2CCCC2)cc1)c1ccccc1[N+](=O)[O-] | inconclusive: 11.2 µM [inhibitor, partial curve]
Cc1noc(C)c1C(=O)Nc1nc2ccc(Cl)cc2s1 | inconclusive: 35.5 µM [inhibitor, single point]
CCCN(C(=O)c1c(C)oc2ncn(CC(C)C)c(=O)c12)c1ccccc1C | inactive
CCn1cc(C(=O)OCc2ccccc2)c(=O)c2ccc(C)nc21 | inconclusive: 5.62 µM [inhibitor, single point]
COC(=O)c1cc(NC(=O)c2cc(-c3ccc(C(F)(F)F)cc3)oc2C(F)(F)F)ccc1N1CCOCC1 | inconclusive: 22.4 µM [inhibitor, single point]
CC(C)n1c(SCC(=O)c2ccc(F)cc2)nc2c(sc3ccccc32)c1=O | inactive
O=C1CC(NS(=O)(=O)c2cccnc2)CN1c1ccccc1 (configuration not stated) | inactive
O=C(COC(=O)C1=COCCO1)Nc1cc(C(F)(F)F)ccc1Cl | inactive
COc1ccccc1OCCCn1c(C2CC(=O)N(c3ccc(F)cc3)C2)nc2ccccc21 (configuration not stated) | inconclusive: 6.31 µM [inhibitor, single point]
COc1ccc(CCNC(=O)c2c(Nc3ccccc3C)sc(C(=O)c3ccccc3)c2N)cc1OC | inconclusive: 35.5 µM [inhibitor, single point]
Cc1c(C(=O)Nc2ccc3c(c2)OCCO3)sc2ncnc(N3CCCCC3C)c12 (configuration not stated) | inconclusive: 35.5 µM [inhibitor, single point]

Structure (SMILES) | Potency
Cc1c(C(=O)NCc2ccco2)sc(=O)n1Cc1ccc(S(C)(=O)=O)cc1 | inactive
COc1ccccc1N1CCN(S(=O)(=O)c2cccc(F)c2)CC1 | inactive
CCCOc1ccc(-c2nc(N3CCN(C)CC3)c3ccccc3n2)cc1 | inconclusive: 28.2 µM [inhibitor, single point]
COc1ccc(NC(=O)NC(=O)c2cc(OCC(F)(F)F)ccc2OCC(F)(F)F)cc1 | inconclusive: 35.5 µM [inhibitor, single point]
CCOC(=O)CN(Cc1ccccc1)C(C(=O)NC1CCCCC1)c1ccccc1 (configuration not stated) | inconclusive: 25.1 µM [inhibitor, single point]
CCCN(CCC)C(=O)CC(c1ccccc1)c1cc(Br)ccc1O (configuration not stated) | inconclusive: 35.5 µM [inhibitor, partial curve, poor fit]
CCn1cc(C(=O)NCC(OC)OC)c(=O)c2cc(S(=O)(=O)N3CCC(C)CC3)ccc21 | inactive
O=C(C1CCC(=O)N1Cc1ccccc1Cl)N1CCN(c2cccc(Cl)c2)CC1 (configuration not stated) | inactive
C1CCN(C2CCN(c3nc4nonc4nc3N3CCSCC3)CC2)C1 | inconclusive: 6.31 µM [inhibitor, partial curve, poor fit]
Cc1cc(C)c2c(/C=C/c3ccc(N(C)C)cc3)ccnc2c1 | inactive
CCc1ccc(N2CC(C)Cn3c2nc2c3c(=O)n(CC(=O)O)c(=O)n2C)cc1 (configuration not stated) | inactive
COc1ccc(NC(=O)COc2ccccc2Cc2ccccc2)cc1S(=O)(=O)N1CCOCC1 | inconclusive: 35.5 µM [inhibitor, single point]
Cc1ccc(NS(=O)(=O)c2ccc3c(c2)NC(=O)CO3)cc1Cl | inconclusive: 20 µM [inhibitor, single point]
COc1ccc(-c2ccc(CCC(=O)O)n2-c2ccccc2C(F)(F)F)cc1 | inconclusive: 12.6 µM [inhibitor, partial curve, poor fit]
Fc1cccc(Cl)c1C1SCc2nc3ccccc3n21 (configuration not stated) | inconclusive: 12.6 µM [inhibitor, partial curve, poor fit]
Cc1cc(C)c(NC(=O)CCCN2CCN(C)CC2)c(C)c1 | inconclusive: 3.16 µM [inhibitor, single point]
COc1cc(NC(=O)c2cncc(-c3ccc(C#N)cc3)c2)cc(C(=O)Nc2cccc(C(F)(F)F)c2)c1 | inconclusive: 0.316 µM [inhibitor, full curve]
COc1cc(/C=C/CNC[C@H]2O[C@@H](n3cnc4c(N)ncnc43)[C@H](O)[C@@H]2O)ccc1O | inactive
C[C@]12CC[C@@H]3c4ccc(O)cc4C(=O)C[C@H]3[C@@H]1CC[C@@H]2O | inactive
Cc1ccc(Nc2cc(C)nc3ccccc23)c(C)c1 | inconclusive: 15.8 µM [inhibitor, single point]
CCOC(=O)CNC(=O)CSc1ncnc2c1nnn2-c1ccc(F)cc1 | inconclusive: 6.31 µM [inhibitor, single point]
CCn1ncc(N2CCOCC2)c(Cl)c1=O | inactive
COc1cccc(NC(=S)N2CCC(Cc3ccccc3)CC2)c1 | inconclusive: 14.1 µM [inhibitor, partial curve, poor fit]

Structure (SMILES) | Potency
CCCC(O)(CCC)C(=O)NN(C(=O)CCl)c1ccccc1 | inconclusive: 35.5 µM [inhibitor, single point]
CCCCn1c(N)c(N(CC(C)C)C(=O)c2ccc(Br)s2)c(=O)[nH]c1=O | inconclusive: 2.51 µM [inhibitor, single point]
CC(=O)c1cc(C#N)c(Oc2ccc(F)cc2)nc1C | inconclusive: 3.16 µM [inhibitor, full curve]
CC(Sc1nncn1C)C(=O)Nc1nnc(-c2ccccc2)s1 (configuration not stated) | inactive
O=C(c1cc(COc2ccc(F)cc2F)on1)N1CC2C[C@@H]3CC1C[C@H](C2)C3 | inconclusive: 20 µM [inhibitor, single point]
Cc1cccc(CNC(=O)c2ccc(Cn3c(SCc4cccc(F)c4)nc4cccnc43)cc2)c1 | inconclusive: 17.8 µM [inhibitor, partial curve]
CCCCNC(=O)COC(=O)c1c2c(nc3ccccc13)/C(=C\c1cccs1)CC2 | inconclusive: 17.8 µM [inhibitor, single point]
O=C1C(c2ccncc2)=C(O)c2ccccc21 | inconclusive: 35.5 µM [inhibitor, single point]
CCOC(=O)NC(=S)Nc1c(C)n(C)n(-c2ccccc2)c1=O | inconclusive: 6.31 µM [inhibitor, single point]
O=C(c1cc(C2CC2)nn1-c1ccccc1)N1CCN(Cc2ccccc2)CC1 | inactive
COc1ccc(C/C(C)=N/NC(=S)Nc2ccccc2)cc1 | inconclusive: 35.5 µM [inhibitor, single point]
CC(NCC(=O)NC(=O)NC1CCCC1)c1ccc(Cl)cc1Cl (configuration not stated) | inactive
COC(=O)COc1ccc(S(=O)(=O)NCc2ccncc2)cc1 | inconclusive: 3.98 µM [inhibitor, single point]
CC(C)CN(C(=O)COC(=O)c1cncc(Br)c1)c1c(N)n(Cc2ccccc2)c(=O)[nH]c1=O | inconclusive: 0.708 µM [inhibitor, partial curve, poor fit]
NS(=O)(=O)c1ccc(NS(=O)(=O)c2ccc(NC(=O)c3ccc(-c4ccccc4)cc3)cc2)cc1 | inconclusive: 35.5 µM [inhibitor, single point]
CC(C)(C)c1ccc(Oc2ccc(NC(=O)c3cccs3)cn2)cc1 | inconclusive: 17.8 µM [inhibitor, single point]
C=CCN1c2ccccc2[C@]23C[C@@H](C(=O)OC)N(C(=O)OCC)C2=NC(C(=O)OC)=C(C(=O)OC)[C@H]13 | inconclusive: 35.5 µM [inhibitor, single point]
Cc1ccc(C)c(N2CCN(C(=O)c3cccn3-c3nnc(N4CCCCC4)s3)CC2)c1 | inconclusive: 35.5 µM [inhibitor, single point]
CC1(C)CC2CC(C)(CN2C(=O)CCCN2C(=O)c3ccccc3C2=O)C1 (configuration not stated) | inconclusive: 12.6 µM [inhibitor, partial curve, poor fit]
Fc1ccc(-c2nc3ccc(Br)cn3c2Cc2ccsc2)cc1 | inconclusive: 22.4 µM [inhibitor, single point]
CCc1cc2c(=O)c(-c3cnn(-c4ccccc4)c3)coc2c(CN2CCOCC2)c1O | inconclusive: 0.501 µM [inhibitor, partial curve, poor fit]
